The values that follow come from the supplement of paper PMC12632987.

The chains are these.
T1: TRAF2, Q12933
T1 chain: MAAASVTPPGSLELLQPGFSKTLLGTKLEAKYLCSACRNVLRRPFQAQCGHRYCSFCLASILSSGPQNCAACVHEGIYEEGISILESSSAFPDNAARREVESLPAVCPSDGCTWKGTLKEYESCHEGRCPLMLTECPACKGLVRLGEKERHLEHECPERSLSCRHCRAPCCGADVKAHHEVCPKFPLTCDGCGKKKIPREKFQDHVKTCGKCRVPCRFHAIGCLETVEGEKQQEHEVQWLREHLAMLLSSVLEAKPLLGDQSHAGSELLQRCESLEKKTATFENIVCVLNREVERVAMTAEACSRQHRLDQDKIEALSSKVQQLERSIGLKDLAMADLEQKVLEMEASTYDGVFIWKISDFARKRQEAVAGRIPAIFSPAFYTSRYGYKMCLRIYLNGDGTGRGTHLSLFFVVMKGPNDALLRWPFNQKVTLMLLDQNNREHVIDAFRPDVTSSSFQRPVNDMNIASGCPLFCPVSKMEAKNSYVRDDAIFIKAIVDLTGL

B1: traf2_out_6_3_2522 (protein)
chain: SEESLLRDARRVLEGMGITTAEQLRRLVKAEVNAVRQLVSRPDTDNATLAGARSVLALSEAIVRVAAETLPDLTEEQRKELLALIEEARALIDAKAAELA
B2: traf2_out_9_108_2594 (protein)
chain: MSEEEKLEKTFKEIEELVKKFIEEVDLTPEQREELEQAIKNARELYEKGLKRTAIILLAIDAARVASKVGEEAVKKLLEELEKIDKIAYNAAKRMVKLLK
B3: traf2_out_11_155_713 (protein)
chain: EEKLKIYQEMVDKNMEIADEALKELEALIEEVAEEDPEVAARLRAVLEESKDAGITTKLLLAIRVLREAGLEEEAARVEKILEEAQKKSNEIAKEAEKKL
B4: traf2_out_11_169_839 (protein)
chain: EEEEKNRKINDFALELNDKAKAELEKFALELAKAAGLDVADIKAIFAANKGKSFSAIAGALIAYFKSQGKEDAAAAVEKKYEELKEEINKKATAFIKSLE
B5: traf2_out_17_162_1478 (protein)
chain: MSPEEELAALEAELEAIEKRVRELEEKLKRLEEMSKEEITDMLVEASELRRRALRLAERFRELAPLIGEERAAALAARAEELAERLQRIANEIYKELEKK
B6: traf2_out_17_162_1584 (protein)
chain: SMLEEELKKLEKELKELKKKLKEFKEELKNLENKSKEELSDLLVEASEAKREARELAVKLEELKPKIGEERAKKLIEEALKIAEEFQKIANELYKEYLKK
B7: traf2_out_20_3_2050 (protein)
chain: EELLKKLEEEMKKLEEKLEEIKKLVDEETAEELEKLLEEVKKAAEKGLEEMLVALSRLRRKLLELAEKAKAEGKEEVAKLLEEAAEYAQRAMNIVYKIIE
B8: traf2_out_18_117_1796 (protein)
chain: SELEKLQEEFEKTLKEFEEELEEAQRVATKLIEKYPKQLPEEAMDAIVEFGEVKRRVQQLVQEAKAHPNDVEKQKKLVEELKKLLEEMKEIKKKLEEILK
B9: traf2_out_9_17_2615 (protein)
chain: SAARKRLAEALLKAIEEELKELVEKGYITEEQAEEILKKVKELIEKGASPDEIIATFLGMVASILLTKSNLSLPEANRIVGEMYRRLRERLAAIEAELAA
B10: traf2_out_13_95_1152 (protein)
chain: SKELAEKINQIADDMLDQVEAKLQALLEKMKAAGKGVEEVQKALDLARYRSVNEAIALLEELSKKYPEFKELFDATIKEIKAIIREAGRKVAELIKEEEA
B11: traf2_out_15_17_1304 (protein)
chain: KISPEKARELTDLALEARDRAKALVAEVLARLEAAGRLTPEQRAELRALLAEPGVSLHVIRDRVAEILRAAGEEALLAEATARLDALIEEVNRKANEMLA
B12: traf2_out_11_155_676 (protein)
chain: EEKRKINNELVDKMSEIDDELKAEIGAIVDEAAAAHPEHAAELNATWAASQPYPGSSRARIMAAKFEELGLEEYAKKLKELLEEAQKKKNEAVKEYEEKL
B13: traf2_out_16_104_1397 (protein)
chain: AEEKQARFEAIIAELEAIAAELGRLANEIYKLMLKASEEKKKELSDALVDVSAVRRAALEAAVQAREDLKAGGDLAAAEARLAALKAAAAAAKAKVEKLK
B14: traf2_out_13_95_1067 (protein)
chain: SKETAKKINELADEAEKKALALLDKAKAELADNPAAVAALDEARRLAETRGIRAAIHALREAKAAMPELAAEFDALIAELEAIRTELGKKVAEIIKEEKE
B15: traf2_out_17_178_1683 (protein)
chain: TKEEERKKISELTDKLIDLTEATGTELLALAKAEGTLTPEELAELEAAIRRGSNRTFTALARRIVPKLKSAEEAQARLDAFEAEARKLNKEIAEAYEKYE
B16: traf2_out_4_186_2312 (protein)
chain: SEIKEARLEGLEIERKAAERLAEELKELIEKGEKPPEEKLKRYVDETVAHLLMVGEYEEANKVEQAYKDKAPQEELLKLLYEAAEKAAELLKKKLEELKK
B17: traf2_out_17_162_1571 (protein)
chain: AELEKELEELKKRLEELEKKLEEFKKKLPELPKMSKEELTDLLVEVSELKREARELAERLAELGAKLGSEELEKLVKRAEEIAEELQRIANEIYKEIEKK
B18: traf2_out_11_155_733 (protein)
chain: EAKKKAQREINDFALEVGDELEAYVKEIIKEVEKEDPEAAKELREIFEKHLKFSKRSAARAVAEKLKELGYEEKAKELEEKIEEAQKKISDFVNEVEKKL
B19: traf2_out_13_95_1188 (protein)
chain: EEEKRKKYKEKTNEIADELLDHADALIARIEAATGDPALGAELRRVLNRGGVSALIHFIREQAAKDPAHRALFEAAAADLEAKRREAGKKVAEAEKEIEE
B20: traf2_out_17_162_1475 (protein)
chain: MSLEERWEELLRRLEELERLREELEKKLENIENMSKEELTDLLVEASEARREARRLAEEFRSLAPEIGEERAAEYAARALEIAERLQRIANKIYKELEKK
B21: traf2_out_1_158_915 (protein)
chain: DTKKNLILAVVRLVGDDAIESAREAGDEETAKALEEFVKEVEEAVRKLLIEENKSVEEVIEEIKKIEEERKKKVNPETAKAIERLGRQIISGIKQVDKLM
B22: traf2_out_8_15_2548 (protein)
chain: SIKEAAEKDIARLKALSDGDKESLINTLLGMAKGELRLAKIYKEEGRKEEALRTLEYARIYAEAALELAKEIGSPRLEEIKKEVEELEKEIEELRKEIEA
B23: traf2_out_18_117_1773 (protein)
chain: SAREEVIARLEALAEEVDRAASRLGKAVLEHWDELTPEQKSAAMDVLADLSAVRREALLLIHRIREEGLPLEEAEARAEALAARAKAALAAAEARLKAIA
B24: traf2_out_20_3_2084 (protein)
chain: KELEEEYKKHLEKAEKLLKEAAKLADPETAKKLEELIKRLKKSEELPYSDRLVVLSEVRREVLLLAQEAKAAGNEELAKILEEAAEEINRAMNLLMKMIE
B25: traf2_out_15_180_1319 (protein)
chain: MTEEELKKRIELANEVADKVQDKLKELLAKNPSLSEEEKKALKELARSLTTLLMNGEEEEAAAVLEEAKAKLSPEAAKIADELYEFIKKEVKEAKEKLKK
B26: traf2_out_20_3_2261 (protein)
chain: EELREKAKKALEEAEKLLKELEPLLPPEEAAELKELLKKAKEAFEKDLKDALVYLSELRRLLLRLSERARAAGDEELAALLEEAADAVNRAANYIYKIIE
B27: traf2_out_5_63_2343 (protein)
chain: SEREELTELARRADRLVREMLEAARAGDEERVERLLEEAVADPELARLVLGILRAEARAYELDGEREEEAEIARRLRERLEERLAAREAERAAAAAAAAA
B28: traf2_out_6_166_2465 (protein)
chain: MEETLAEIRRIAERLGEYEPEIVIEAFERVAAELTDERALLARQLASGVRQGQKAGIDTRTIVTAMADGWLALGVPPEDILELLRRVLEEAERLAAEREA
B29: traf2_out_11_169_890 (protein)
chain: EEEEKNRKIIEHALELNDKAKEELKKYALKLAKEAGLDEKEVEKIFEENKGKSLSYVASKLIEWFKSKGAEEAAKAVLEKYDELKEKINKESTKFIKELE

The full ranking holds about 1,800 sequences; the median of “median log2 fold change of GCK-ALFA target abundance (FLAG IP / Myc IP barcode read proportion)” is about 0.14, and the lowest 2% start at about -0.84. This is one part of the list.

In the assay the target is T1, TRAF2, Q12933. The assay can be described thus: median log2 fold change of GCK-ALFA target abundance (FLAG IP / Myc IP barcode read proportion) (log2 ratio); each designed protein is fused to an ALFA-tag nanobody in HEK293 cells to bring the named protein to FLAG-tagged glucokinase (GCK); Myc marks an untargeted standard; higher = target protein stabilised (more abundant). The conditions noted are these: target protein: 3xFLAG-MCP-GCK-ALFA reporter; HEK293 landing pad (RPLP). The procedure, abridged: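 HEK293 landing-pad cells received a recombined binder library fused to the ALFA nanobody and were induced with 2 μg mL^−1 doxycycline, then transfected with a plasmid encoding a FLAG-tagged target and a Myc-tagged standard. Lysates were collected after 48 h for anti-FLAG and anti-Myc immunoprecipitation, and the circular RNA barcodes were reverse transcribed, amplified and sequenced. Target abundance for each binder is the median log2 ratio of FLAG to Myc barcode read proportions. Barcodes had to reach a proportion of at least 10^−7 in both replicates, each binder needed at least 3 barcodes per replicate, a pseudocount of 10^−6 was applied, and the two replicates were pooled.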
With B1, the “median log2 fold change” value was -0.0799. For the molecule B2, the “median log2 fold change” value was -0.22. As to B3, the “median log2 fold change” value came out at 0.458. With B4 the figure was 0.0723; with B5, 0.337. Turning to B6, the “median log2 fold change” value is 0.178. With B7, the “median log2 fold change” value was found to be 0.279. Turning to B8, the “median log2 fold change” value came out at 0.186.

On to B9, for which the “median log2 fold change” value was -0.399.

Consider B10, for which the “median log2 fold change” value was -0.574.

Consider B11, for which the “median log2 fold change” value amounted to 0.112. Take B12: the “median log2 fold change” value was determined as 0.247. For the molecule B13, the “median log2 fold change” value is -0.0376. Consider B14, for which the “median log2 fold change” value is -0.0153. With B15 the figure was 0.271.

On to B16, for which the “median log2 fold change” value came out at 0.0035. In the case of B17, the “median log2 fold change” value was found to be 0.207. B18: the “median log2 fold change” value was 0.199. For the molecule B19, the “median log2 fold change” value was -0.0372. With B20 the figure was 0.0618. Take B21: the “median log2 fold change” value was -0.106. With B22, the “median log2 fold change” value amounted to 0.203. With B23 the figure was 0.0262; with B24, 0.118; with B25, 0.315. Consider B26, for which the “median log2 fold change” value was determined as 0.304.

For B27, the “median log2 fold change” value was -0.159. In the case of B28, the “median log2 fold change” value is 0.248. The value for B29 was 0.15.
